# Some of the results follow. Read counts after selection give these values, which scatter widely. Each score is taken over the longer molecules that contain the sequence shown.
# Tested on: IMP3 KH1-2
# Assay: 6-mer SELEX enrichment z-score vs GST control; IMP3 is the RNA-binding protein IGF2BP3; higher = more enriched by binding
# Conditions: construct: KH1-2 (164-376); SELEX round: R4
# Experimental: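 SELEX-seq with GST-tagged IMP3 KH1-2 (Pro164-Phe376) and an N40 RNA pool, round 4 (stringent 300/600 mM KCl washes). 6-mer z-score of sequence-tag enrichment normalised to the corresponding GST SELEX round; RNA k-mers written as DNA (T for U).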
# Chain of IMP3 KH1-2 (chain, as listed by the source): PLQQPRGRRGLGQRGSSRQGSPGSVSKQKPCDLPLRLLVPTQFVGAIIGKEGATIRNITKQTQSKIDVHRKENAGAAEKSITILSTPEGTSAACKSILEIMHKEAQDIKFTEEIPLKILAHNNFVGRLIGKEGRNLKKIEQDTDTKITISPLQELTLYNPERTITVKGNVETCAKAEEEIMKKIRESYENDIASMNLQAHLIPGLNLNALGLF
row,Sequence,6-mer SELEX enrichment z-score
1,GCGAAC,-1.37
2,CTGTTT,0.24
3,CGCCAA,-0.544
4,GGTCTA,0.051
5,GGCGTG,-1.05
6,CAATAC,1.26
7,ATCAGT,0.557
8,AGGCGA,-0.086
9,ACCAGC,-0.88
10,AGAAAA,0.014
11,AGCGGC,1.12
12,TTTGTA,0.161
13,AATAAT,1.97
14,CACTCG,-0.999
15,CTGAGG,-0.086
16,CTTTGT,0.098
17,CGACCG,-1.38
18,AGCCTT,-0.356
19,ACTTTC,0.92
20,CGGTAG,-0.235

row,Sequence,6-mer SELEX enrichment z-score
1,ATTCGT,0.032
2,GTAGTA,-0.493
3,TGTTTA,0.244
4,TCATCT,0.539
5,CACCCA,-1.6
6,CGGGGC,1.25
7,TAATCA,1.16
8,ACCCCG,-1.06
9,CCCAGC,-1.55
10,AACGGT,-0.71
11,ATACCA,-0.238
12,TGCCCT,-0.866
13,TATATC,1.1
14,CGGACG,-1.02
15,CTGGCG,-0.303
16,AACACT,1.29
17,CCCACA,-0.64
18,CGACAG,-0.822
19,TAAACC,-0.785
20,TAAAAG,-0.338
